According to article PMC4336329 (PLoS ONE, 2015):
In all, about 310,000 compounds went through this assay and about 14,000 (4.5%) showed an effect of 50% or more. Effects have a minus sign here. Some of the results follow.

Molecular target: human ether-à-go-go-related gene (hERG) potassium channel (human, UniProt Q12809)
Assay: primary screen, population patch clamp on CHO cells stably expressing hERG
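Further: peak tail current of the secondary pulse compared with the same well before compound.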

human ether-à-go-go-related gene (hERG) potassium channel, sequence (Q12809 whole entry, looked up): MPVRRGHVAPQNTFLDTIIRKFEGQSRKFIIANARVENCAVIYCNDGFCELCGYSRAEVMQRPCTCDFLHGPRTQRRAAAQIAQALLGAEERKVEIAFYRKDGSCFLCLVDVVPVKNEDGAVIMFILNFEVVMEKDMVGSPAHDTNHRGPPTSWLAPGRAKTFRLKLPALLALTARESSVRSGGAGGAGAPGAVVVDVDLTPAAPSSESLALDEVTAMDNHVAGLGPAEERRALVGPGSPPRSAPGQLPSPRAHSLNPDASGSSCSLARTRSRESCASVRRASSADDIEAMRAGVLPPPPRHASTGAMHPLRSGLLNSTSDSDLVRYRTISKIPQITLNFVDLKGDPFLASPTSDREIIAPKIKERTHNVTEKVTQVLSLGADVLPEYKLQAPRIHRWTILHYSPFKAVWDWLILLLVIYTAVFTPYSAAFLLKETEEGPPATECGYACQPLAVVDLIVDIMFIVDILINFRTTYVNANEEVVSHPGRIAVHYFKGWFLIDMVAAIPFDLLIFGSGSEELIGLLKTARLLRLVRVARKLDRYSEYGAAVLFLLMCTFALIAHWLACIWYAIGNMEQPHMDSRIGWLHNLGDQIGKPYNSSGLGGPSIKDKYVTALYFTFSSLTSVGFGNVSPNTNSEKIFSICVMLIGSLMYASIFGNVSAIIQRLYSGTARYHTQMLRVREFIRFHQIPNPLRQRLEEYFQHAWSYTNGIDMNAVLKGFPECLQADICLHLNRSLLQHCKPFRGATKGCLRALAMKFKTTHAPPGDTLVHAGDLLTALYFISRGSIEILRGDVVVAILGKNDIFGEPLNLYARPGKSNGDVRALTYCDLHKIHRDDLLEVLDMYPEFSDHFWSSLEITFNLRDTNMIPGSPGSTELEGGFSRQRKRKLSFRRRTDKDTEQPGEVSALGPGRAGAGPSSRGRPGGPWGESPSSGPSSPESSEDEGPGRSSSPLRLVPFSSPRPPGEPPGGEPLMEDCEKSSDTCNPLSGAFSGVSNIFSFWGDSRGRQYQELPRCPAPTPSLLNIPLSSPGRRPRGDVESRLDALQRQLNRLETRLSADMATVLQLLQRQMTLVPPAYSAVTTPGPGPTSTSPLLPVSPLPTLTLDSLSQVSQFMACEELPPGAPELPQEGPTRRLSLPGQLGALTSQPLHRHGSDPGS

SMILES	hERG current change (%, negative = inhibition) at 10uM [%]
O=C(Nc1ccc(Cl)cc1)NC1(C(=O)NCCCN2CCOCC2)CCCCC1	-0.834
Cc1ccc(NC(=O)c2cc(=O)[nH]c3ccc(S(=O)(=O)N4CCOCC4)cc23)cc1	0.283
COc1cc(Cc2ccc(N)c(OC)c2)ccc1N	11.1
CCN=C1S/C(=C\c2cc(Cl)c(OC)c(OC)c2)C(=O)N1CC	13.4
Cc1ccc(S(=O)(=O)NNC(=O)Nc2ccc(Cl)c(Cl)c2)cc1	8.35
CN1CCOc2cc(S(=O)(=O)NCc3ccc(S(N)(=O)=O)cc3)ccc21	24.5
Cc1ccccc1CN1C(=O)/C(=C\c2ccc(C(=O)NCCN3CCOCC3)cc2)Sc2ccccc21	1.97
CC(C)CN(C(=O)COC(=O)Cn1cnc2ccccc2c1=O)C1CCS(=O)(=O)C1 (centres unmarked)	21.2
Cc1cc(S(=O)(=O)NCc2ccccc2)ccc1OCC(=O)NCC1CCCO1 (centres unmarked)	-6.68
Cc1ccc(-n2c(O)c(C=NCc3ccccn3)c3ccccc3c2=O)cc1	-3.79
COc1ccccc1/C=N\NC(=O)c1c(C)nc2ccc(Cl)cn12	-12.8
COc1cc2[nH]c(=O)n(CCCCCC(=O)NCCCN3CCC(C)CC3)c(=O)c2cc1OC	18.8
COc1cc(OC)c(NC(=O)c2csc(C)c2)cc1Cl	14.2
Cc1ccc(CN2CCN(Cc3cccc4nccnc34)CC2CCO)cc1 (centres unmarked)	-66.6
CC(C)(C)c1csc(NC(=O)c2ccncc2)n1	-33.7
C#CCOCCOCCOCCNc1nc(N2CCN(C(=O)CCCCCCCCCCNC(=O)[C@H](CCCCN)n3cc(CCO)nn3)CC2)nc(N2CCN(C(=O)CCCCCCCCCCNC(=O)[C@@H]([C@H](C)O)n3cc(C)nn3)CC2)n1	0.574
COc1cc(C=O)ccc1OCCCOc1ccccc1[N+](=O)[O-]	7.71
COc1cc(C(=O)N/N=C(\C)Cn2nc([N+](=O)[O-])cc2C)ccc1O	-21.1
COc1ccccc1NC(=O)CSc1nnnn1C	10.1
O=C(NCC(=O)N(CC1CCCO1)C(C(=O)NC1CCCC1)c1cccnc1)c1ccco1 (centres unmarked)	22.4
COC(=O)c1c(NC(=O)CN2CCCC(C)C2)c2c(C)cccc2n1C (centres unmarked)	-16.8
O=C(CC1NCCNC1=O)Nc1ccc2c(c1)OCCO2 (centres unmarked)	-1.54
O=c1c2c3nc4ccccc4nc3n(-c3ccc4c(c3)OCCO4)c2ncn1C1CCCC1	4.93
CCOC(=O)C1(CCOc2ccccc2)CCN(Cc2ccc(C(=O)OC)cc2)CC1	-49.9
COC(=O)[C@@]12CCCN1[C@H](c1ccc(-c3ccc(F)cc3)c(OC)c1)[C@H]1C(=O)N(C)C(=O)[C@H]12.O=C(O)C(F)(F)F	-33
CC1(C)CN2C(c3ccc(Cl)cc3)N2C1 (centres unmarked)	11
COCCOC(=O)C1=C(C)OC(N)=C(C#N)C1c1cc2cccc(C)c2nc1Cl (centres unmarked)	-13.8

SMILES	hERG current change (%, negative = inhibition) at 10uM [%]
Cc1ccc2c(c1)c1c3n2CCN=C3CCC1.Cl	-76.3
CSc1ccc(OC2CCCCC2NS(=O)(=O)c2ccccc2)cc1 (centres unmarked)	10.6
Cc1ccc(OCC(=O)Nc2ccc(-c3nnc(-c4ccco4)o3)cc2)cc1	10.3
O=C(Nc1ccc(F)c(Cl)c1)C1CC(=O)N(Cc2ccccc2)C1 (centres unmarked)	-1.29
O=C(CSc1ccc(-c2ccccc2)nn1)Nc1ccc2c(c1)OCCO2	-17.9
CCn1cc(C(=O)O)c(=O)c2cc(F)c(N3CCN(C(=S)NC(=O)c4ccccc4Cl)CC3)cc21	-9.5
Fc1ccc(CO/N=C/C2=C(Cl)c3ccccc3CC2)cc1	18.3
N#Cc1ccc2ccn(CC(=O)NC3CCCCCC3)c2c1	9.58
CCOCCCNC(=S)NCCNc1nc2ccc(C)cc2cc1C#N	-5.14
CCN1CCN(c2nc3c(C)cccn3c(=O)c2/C=C(\C#N)S(=O)(=O)c2ccc(C)cc2)CC1	-62.9
COc1cccc(/C=C/C(=O)N2CCN(c3n[nH]c(=O)[nH]c3=O)CC2)c1OC	14.8
COP(=O)(OC)C(NC(C)=O)C(Cl)(Cl)Cl (centres unmarked)	15.3
Cc1nn(C(C)C(=O)NCCCN2CCCCCC2)c(=O)c2cc3sccc3n12 (centres unmarked)	-4.89
CC(C)CC(Nc1ncnc2scc(-c3ccccc3)c12)C(=O)O (centres unmarked)	0.287
COC(=O)CC/C(O)=C1\C(=O)CC(C)(C)CC1=NCc1nc2ccccc2[nH]1	0.594
O=C(N/N=C/c1c(O)n(-c2ccccc2)c(=S)[nH]c1=O)c1ccccc1	12.8
CN(c1cccc(Cl)c1)S(=O)(=O)c1cccc(C(=O)NCc2ccncc2)c1	-28.6
CC1CCN(CCCNC(=O)Cn2ncc3c([nH]c4ccccc43)c2=O)CC1	9.35
COc1cc(S(=O)(=O)N2CCCCC2)c(OC)cc1Br	8.93
COc1ccc(NC(=O)CC2CCCCC2)cc1OC	-3.7
Cc1ccc(-n2c(C)nnc2SCC(=O)NC2CCCC2)cc1	-4.89
CCN(C(=O)CSc1nnc(C(C)N(C)C)n1-c1ccc(F)cc1)C1CCS(=O)(=O)C1 (centres unmarked)	4.62
CC(=O)NCCOC(=O)Nc1cccnc1	12.9
CC(=O)c1sc(NC(=O)CN2C(=O)C3CCCCC3C2=O)nc1-c1ccccc1 (centres unmarked)	-19.5
CC(C)C(=O)N1CCN(c2ccccc2NC(=S)NC(=O)c2cccs2)CC1	-2.66
Cc1cccnc1NC(=O)c1ccc(Cl)c(S(=O)(=O)N2CCCCCC2)c1	-65.5
